From the supplement of paper PMC8728848
This is one part of the list.

Assays:
Assay in all cases: glycan array binding signal (z-score within array); higher = stronger binding
Conditions in all cases: glycan notation: IUPAC condensed, linker removed
[1] = biological target: Gal(b1-4)GlcNAc(b1-6)GalNAc
How it was run: (§1)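 Glycan array data came from 3228 arrays in the Consortium for Functional Glycomics database, and only arrays with an available protein sequence were kept. Glycan names were put into IUPAC-condensed notation, and columns mapping to the same glycan were averaged. The binding signal is a within-array Z-score, averaged across arrays of one protein sequence run at different concentrations or buffers and across linkers. A negative Z-score can be read as non-binding.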

[2] = biological target: Gal(b1-4)GlcNAc(b1-6)[Gal(b1-3)]GalNAc
How it was run: as §1

[3] = biological target: Gal(b1-4)GlcNAc(b1-6)[Gal(b1-4)GlcNAc(b1-3)]GalNAc
How it was run: as §1

[4] = biological target: Gal(b1-4)GlcNAc6P
How it was run: as §1

[5] = biological target: Gal(b1-6)Gal
How it was run: as §1

[6] = biological target: Gal3S(b1-3)GalNAc
How it was run: as §1

[7] = biological target: Gal3S(b1-3)GlcNAc
How it was run: as §1

[8] = biological target: Gal3S(b1-3)[Fuc(a1-4)]GlcNAc
How it was run: as §1

[9] = biological target: Gal3S(b1-4)Glc
How it was run: as §1

[10] = biological target: Gal3S(b1-4)Glc6S
How it was run: as §1

[11] = biological target: Gal3S(b1-4)GlcNAc
How it was run: as §1

[12] = biological target: Gal3S(b1-4)[Fuc(a1-3)]Glc6S
How it was run: as §1

[13] = biological target: Gal3S(b1-4)[Fuc(a1-3)]GlcNAc
How it was run: as §1

[14] = biological target: Gal3S(b1-4)[Fuc(a1-3)]GlcNAc6S
How it was run: as §1

[15] = biological target: Gal3S4S(b1-4)GlcNAc
How it was run: as §1

[16] = biological target: Gal3S6S(b1-4)GlcNAc
How it was run: as §1

[17] = biological target: Gal3S6S(b1-4)GlcNAc6S
How it was run: as §1

[18] = biological target: Gal4S(b1-4)GlcNAc
How it was run: as §1

[19] = biological target: Gal4S6S(b1-4)GlcNAc
How it was run: as §1

[20] = biological target: Gal6P(b1-4)GlcNAc
How it was run: as §1

[21] = biological target: Gal6S(b1-3)GlcNAc
How it was run: as §1

[22] = biological target: Gal6S(b1-3)GlcNAc6S
How it was run: as §1

[23] = biological target: Gal6S(b1-4)Glc
How it was run: as §1

B1: Cohesin-hDC-ASGPR (Homo sapiens) (protein)
chain: LDDLDAVRIKVDTVNAKPGDTVRIPVRFSGIPSKGIANCDFVYSYDPNVLEIIEIEPGDIIVDPNPDKSFDTAVYPDRKIIVFLFAEDSGTGAYAITKDGVFATIVAKVKEGAPNGLSVIKFVEVGGFANNDLVEQKTQFFDGGANVGDTTEPATPTTPVTTPTTTDDLDAASQNSKFQRDLVTLRTDFSNFTSNTVAEIQALTSQGSSLEETIASLKAEVEGFKQERQAGVSELQEHTTQKAHLGHCPHCPSVCVPVHSEMLLRVQQLVQDLKKLTCQVATLNNNASTEGTCCPVNWVEHQDSCYWFSHSGMSWAEAEKYCQLKNAHLVVINSREEQNFVQKYLGSAYTWMGLSDPEGAWKWVDGTDYATGFQNWKPGQPDDWQGHGLGGGEDCAHFHPDGRWNDDVCQRPYHWVCEAGLGQTSQESHHHHHH
[1]
  glycan array binding signal (z-score): 1.17
[2]
  glycan array binding signal (z-score): 1.23
[3]
  glycan array binding signal (z-score): -0.468
[4]
  glycan array binding signal (z-score): -0.477
[5]
  glycan array binding signal (z-score): -0.491
[6]
  glycan array binding signal (z-score): -0.05
[7]
  glycan array binding signal (z-score): -0.202
[8]
  glycan array binding signal (z-score): -0.306
[9]
  glycan array binding signal (z-score): 0.565
[10]
  glycan array binding signal (z-score): 0.42
[11]
  glycan array binding signal (z-score): -0.195
[12]
  glycan array binding signal (z-score): -0.472
[13]
  glycan array binding signal (z-score): -0.417
[14]
  glycan array binding signal (z-score): 0.512
[15]
  glycan array binding signal (z-score): -0.497
[16]
  glycan array binding signal (z-score): -0.369
[17]
  glycan array binding signal (z-score): -0.453
[18]
  glycan array binding signal (z-score): -0.49
[19]
  glycan array binding signal (z-score): -0.471
[20]
  glycan array binding signal (z-score): -0.411
[21]
  glycan array binding signal (z-score): -0.443
[22]
  glycan array binding signal (z-score): -0.215
[23]
  glycan array binding signal (z-score): -0.443
